Measured values from the supplement of paper PMC11417369.
± gives the standard deviation of the averaged measurements. Some of the results follow.

Each sequence was assayed on PfAP2-EXP AP2 domain (GST-tagged) (assay: gcPBM binding intensity (ln(normalized median fluorescence intensity)); higher = stronger DNA binding).
Procedure, shortened: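 The highest Masliner-normalised natural-log median intensity across replicate spots of either probe orientation is reported as binding intensity. GST-tagged P. falciparum DNA-binding domains expressed in E. coli were applied for 1 h to an Agilent 4 × 180k array of primer-extended double-stranded 36-bp intergenic genomic probes plus negative controls, and bound protein was detected with Alexa488 anti-GST antibody and scanned at 488 nm.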

Sequence | gcPBM binding intensity (ln)
TTATAAATTTAAAGTAGTACTATACTACTATTTTAT [XGTACX_site3038] | 8.06 ± 0.29
TTTATAAGAATTACTAGTACATATAAGGAATTATAT [XGTACX_site3953] | 8.29 ± 0.33
CATTTTTTATAATAATGTACATGTATTAAAAAAAAA [XGTACX_site6390] | 8.43 ± 0.29
ATCCACAAAATAGGATGTACATATAAAATAAATAAA [XGTACX_site5362] | 8.63 ± 0.5
TATGGAATAATACGCGTACACACATATATATATTAA [CACACA_site132] | 8.93 ± 0.4
TTTACATACAAATTAACACACATATAGAAAAGAGAA [CACACA_site1889] | 8.97 ± 0.52
CTCGTATATATAATACGTACATATTATATATATATA [XGTACX_site1704] | 9.71 ± 0.49
CCTTCATCATATTTAACACACAGAGAAAAAGCGGAT [CACACA_site274] | 8.88 ± 0.64
AAAAAAAAAAAAAAAAAAACCACAAACAAATATGAA [TGCATGCA_negctrl_site34] | 8.845 ± 0.035
TCCTTTCTTTTTTAAACATGCATATGTAATATAAAT [TGCATGCA_site979] | 8.77 ± 0.042
TTTTAAAATATATTTGTATATATATATATATATATA [XGTACX_negctrl_site536] | 10.4 ± 0.35
ATAATATAATAATACACACTCATTATATATATAAAG [CACACA_site3956] | 8.37 ± 0.47
AAAAAAAATAAACACACACACATACCCATAAATATA [CACACA_site5980] | 8.72 ± 0.53
TTTGAAATATTTATTTGTACATATACACACTTAAAT [XGTACX_site8321] | 8.52 ± 0.38
ATATTATTTTGTCAGGGTACATTCCATAAGTTTTTT [XGTACX_site6855] | 8.8 ± 0.42
TATTTATGTAGATACACACCCATGTTATATGGAGGT [CACACA_site3461] | 8.42 ± 0.31
TTTCTTTTTTTTTTTATTTACCTGAATTATGTATTA [TGCATGCA_negctrl_site345] | 8.56 ± 0.7
GCTTGTTCAAAAATGAGTACATACAAATAGTTGTAT [XGTACX_site1770] | 8.645 ± 0.007
AATAGATTTTTATGCGTGCACACATTTAACAAAAAA | 8.88 ± 0.11
GTGCTAGTATTTAATACACACAATTGAAGTTCCTGA [CACACA_site1452] | 8.39 ± 0.36
TTCTGTTCAAAATATGAACACACACCGATATATATA [CACACA_site8637] | 8.49 ± 0.38
TACACCAGTTGTGGGAGTACACAAAAAAAGGGAAAA [XGTACX_site6047] | 8.39 ± 0.31

Sequence | gcPBM binding intensity (ln)
AAAAATATAAAGAAATGTACTTATAAAAATCCCTAC [XGTACX_site3824] | 8.46 ± 0.31
TGCAGTCTGGAGAAAAGTACACAGTATCTGGTAGCT [XGTACX_site2013] | 8.59 ± 0.19
AATATCATAAAATAAAGTACAAATATATATTGAAAA [XGTACX_site8813] | 8.71 ± 0.45
CTTTATCTTTTTCATTGTACTTTATTTTAAAATTAA [XGTACX_site4858] | 8.94 ± 0.34
TTCTGGTGTAAATGCACACAGAAGAAGAAAAAAAAA [CACACA_site3685] | 8.68 ± 0.33
TAATTTAATTTTCCAAGAAAAAAAAAAGAAAAAAGA [CACACA_negctrl_site1703] | 8.27 ± 0.37
TAACATCCTAATGTCACACATGTTATAGGTTTAAAT [CACACA_site5649] | 8.21 ± 0.26
ATGATCATAAAACACACACACAAAAAAAAAAAAAAA [CACACA_site1805] | 8.12 ± 0.64
ATTAATTTTATATATGCACACAAAATATGTTCATAT [CACACA_site9350] | 8.28 ± 0.15
AATAATATTTATTTTTGTACATATGTGCATTATAAA [XGTACX_site3682] | 8.63 ± 0.12
TATGTATATATTTGTGCACACCAAAGTTTGATTTTA [CACACA_site1861] | 9.2 ± 0.13
TTATAATAAACCTATACACACATAAATAAATAAATA [CACACA_site2581] | 8.61 ± 0.45
TCAAGAATTATATAAACACACATACATACACCCATA [CACACA_site5126] | 8.85 ± 0.55
ATATTGATGTATTGTTTTTTTTTTTTCTTTTTTTTT [CACACA_negctrl_site1238] | 8.32 ± 0.64
GAATTCAACAAAAAAAGTACTCTACATAAAATAATG [XGTACX_site175] | 8.46 ± 0.39
CCATGCATACATTCTTGTACACATTTCTATTATGAG [XGTACX_site39] | 8.89 ± 0.41
TACTCACAATGGGGTCTACAAAAAAAAAAAAATAAA [XGTACX_negctrl_site229] | 8.31 ± 0.5
GAACGAAACTTTCTTACACACATTGAAATTTTTTTC [CACACA_site1779] | 8.86 ± 0.51
TTATAAAAGGACTTCTGTACGAATTTTTTTTAATAA [XGTACX_site1411] | 8.03 ± 0.11
TATGCAAGGAACCACACACACACACCGAAATGTATA [CACACA_site4573] | 8.57 ± 0.6
AATAAATAAATATATATATATATATAATATCATAAA [CACACA_negctrl_site337] | 8.6 ± 0.057
TTTTTTATTAGTATCTGTACACATTGGTATTTGTAT [XGTACX_site6682] | 8.82 ± 0.33
